Among the data in PubChem BioAssay AID256 (DTP/NCI, 2004) are T/C values, retold here.

For this test, the system named is CD2F1 mice, L1210 leukemia ip, survival T/C. In words: NCI In Vivo Anticancer Drug Screen. Data for tumor model L1210 Leukemia (intraperitoneal) in CD2F1 (CDF1) mice. The conditions noted are these: endpoint: mean survival time, schedule: Q01DX009 (ip), higher = longer survival. On the procedure:
The antitumor activity of compounds was measured in mice bearing transplantable tumors. Survival or tumor size were measured and the results are expressed as the measurement made in the treated group (T) divided by the measurement made in the vehicle treated control group (C). The tumor model used in this assay is L1210 Leukemia (intraperitoneal) in CD2F1 (CDF1) mice

Inconclusive results and toxic doses are left out. A number of entries come with more than one value. The other results are left out here. There may be further records. The records of an entry do not match, cause unknown; some may be repeats, others may stem from another dose, organism or construct than stated.

As for `NC(=S)N/N=C/c1ccc(O)cn1`, the T/C (dose: 75.0 mg/kg/injection, vehicle: saline with Tween-80) was 89 % of control, 166 % of control, 179 % of control.

For `S=P(N1CC1)(N1CC1)N1CC1`, the T/C (dose: 8.0 mg/kg/injection, vehicle: saline) is on record as 105 % of control, 118 % of control, 156 % of control.
